# The list shows a part of the results. The full chains were built here from the parent and the listed change. Inactive controls read about 0.05.
# B1: TEV protease; numbered along this chain (parent)
# chain: MGESLFKGPRDYNPISSSICHLTNESDGHTTSLYGIGFGPFIITNKHLFRRNNGTLVVQSLHGVFKVKDTTTLQQHLVDGRDMIIIRMPKDFPPFPQKLKFREPQREERICLVTTNFQTKSMSSMVSDTSCTFPSGDGIFWKHWIQTKDGQCGSPLVSTRDGFIVGIHSASNFTNTNNYFTSVPKNFMELLTNQEAQQWVSGWRLNADSVLWGGHKVFMVKPEEPFQPVKEATQL
# Variants of: B1
# Assay: raw area under fraction-flipped curve 0-4 h after induction (AUC4h, not background-subtracted), DNA-recorder readout of cleavage of the substrate (dimensionless); higher = more cleavage of the substrate by the protease variant
# Details: temperature: 34 °C; time window: 0-4 h after rhamnose induction
# Procedure: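 In vivo DNA recorder in E. coli TOP10(DE3) ΔrhaA at 34 °C. Each TEVp single-site mutant (parent TEVp 0) is paired with a single-site variant of the 7-mer TEVs (canonical ENLYFQ|S). The substrate sits between flexible linkers in a Bxb1-sfGFP-TEVs-SsrA fusion, so cleavage stabilises Bxb1 and speeds flipping of a recombination array, read by NGS. The value is the raw area under the fraction-flipped curve over 0-4 h after rhamnose induction (AUC4h), with ≥20 reads per time point. It is not background-subtracted; inactive controls average about 0.047.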
# 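Further: Bxb1 expression induced with 0.2% (w/v) L-rhamnose at OD600 near 0.5, cultures sampled hourly, flipped fraction per protease–substrate barcode pair counted by paired-end Illumina sequencing.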
Variant,area with substrate ENLYFAS,area with substrate ENLYFCS,area with substrate ENLYFES,area with substrate ENLYFHS,area with substrate ENLYFIS,area with substrate ENLYFMS,area with substrate ENLYFNS,area with substrate ENLYFPS,area with substrate ENLYFRS,area with substrate ENLYFSS,area with substrate ENLYFTS,area with substrate ENLYFDS,area with substrate ENLYFFS,area with substrate ENLYFKS,area with substrate ENLYFVS,area with substrate ENLYFGS,area with substrate ENLYFYS,area with substrate ENLYFWS,area with substrate ENLYFLS
V210T,0.0668,0.0809,0.0649,0.0514,0.0465,0.0635,0.061,0.0515,0.0682,0.0609,0.0641,–,–,–,–,–,–,–,–
N116R,0.0577,–,–,–,0.0579,–,0.0577,0.0414,0.0584,–,0.064,0.0744,0.0692,0.0702,0.0418,–,–,–,–
N53E,0.0351,0.0558,–,–,0.0549,–,0.0663,–,0.0658,0.0619,0.0562,–,–,–,–,0.118,0.0477,–,–
R106L,0.0579,0.0708,0.086,–,0.0608,0.101,0.0724,0.0684,–,0.0622,–,–,0.0664,0.103,0.0527,–,–,–,–
S127F,0.058,0.0643,0.0662,0.0578,0.0545,0.0763,0.0758,0.0557,0.057,–,0.0652,0.0613,0.0719,0.0676,0.0428,0.0584,0.0585,–,–
L61V,0.0539,0.0694,0.0745,0.0465,0.0501,0.0785,–,0.0584,–,0.0364,0.0203,–,–,0.0589,–,–,–,0.0503,–
G35C,0.0479,–,–,–,0.0451,–,0.047,0.0805,–,–,0.0378,–,–,0.0634,0.0584,0.0496,–,0.0378,–
P104E,0.0564,–,0.0606,–,0.0483,0.0503,0.0484,0.0485,0.0501,–,–,–,0.0514,–,0.0492,0.0272,0.0537,0.0446,–
W203L,0.0656,–,0.0592,–,–,0.0619,0.0602,–,0.0519,0.0655,0.0536,0.0848,0.0456,0.0564,–,–,–,–,0.0767
G138D,0.0476,–,–,–,–,–,–,–,–,–,0.0622,–,–,–,0.047,0.056,–,–,–
F101T,0.0498,–,0.0525,–,0.0491,–,0.0507,0.0459,–,0.0475,–,0.029,0.0758,0.0526,–,–,–,–,–
G202E,0.0513,0.059,0.0597,0.0312,0.0604,0.0697,0.0508,0.0626,0.0518,–,–,–,0.0743,–,0.0569,0.0638,0.0575,0.0572,–
S182T,0.049,0.055,–,–,0.063,0.0722,–,0.0694,0.0525,–,–,–,–,0.0604,–,–,–,0.0554,–
S182G,0.0649,0.0575,–,–,0.0563,0.0649,–,–,0.0758,–,–,–,0.0366,–,–,0.0632,0.0467,0.0583,–
Y179W,0.0568,–,–,0.0562,0.0387,0.0452,0.052,–,–,0.0468,0.0578,0.0517,0.0615,–,–,–,–,0.0704,–
L73F,0.0595,0.0536,–,–,0.0538,0.07,–,–,0.0487,0.0426,–,–,0.0625,0.0562,–,0.0698,0.0544,0.0721,0.0543
N178T,0.0741,–,0.0621,0.0557,0.0543,0.0619,0.0604,0.0682,–,–,–,–,0.0614,0.0732,0.0581,0.0526,0.0548,0.0504,–
N178V,0.0524,–,–,–,–,–,–,0.069,0.0576,0.0199,–,0.0394,–,–,–,–,–,0.0606,0.0577
P222R,0.0615,0.046,0.0702,0.0852,0.0537,0.0639,0.0641,0.0539,0.051,–,0.0646,–,0.06,0.0585,–,0.075,–,0.0644,0.0543
I139L,0.065,0.0852,–,–,0.0556,0.0677,0.0724,0.0576,0.0632,0.0583,0.0653,–,–,0.0635,0.0582,0.0572,0.0632,0.0375,0.0552
E189R,0.0622,0.0608,0.0616,–,0.0497,0.0663,0.0592,0.0562,–,–,–,0.056,0.0631,0.0548,0.0619,–,–,0.0374,–
W141V,0.0607,0.0524,0.0661,0.0605,0.0561,0.0707,0.0702,0.0412,0.0576,–,–,–,0.0695,0.0635,0.0572,–,–,0.0333,–
K142V,0.0451,0.0765,0.0696,–,0.0566,0.0533,0.0596,0.0537,0.0419,0.0619,0.0971,–,0.0502,–,0.0651,–,0.0498,0.0558,0.0511
R50F,0.043,0.0633,–,0.057,0.0602,0.0905,0.0759,0.0553,–,0.0648,–,–,0.069,0.0501,–,0.0372,0.0537,0.0629,0.0597
T233C,0.0712,–,0.0521,0.0625,0.0636,–,–,0.0682,0.0628,–,0.0748,0.0596,0.0624,–,0.0817,–,0.0497,–,–
E107C,0.0753,0.0445,0.0724,–,0.0685,–,–,0.0595,–,–,–,–,–,–,–,0.0714,0.0698,0.0523,–
D82E,0.0378,0.076,0.0645,0.0676,0.0562,0.0657,0.0815,0.0534,–,0.0673,0.0561,0.0658,0.0479,–,–,0.0571,–,0.0391,0.066
S169G,0.0465,0.0614,0.06,0.0607,0.0518,0.0472,0.0504,0.0749,0.0589,0.0572,0.0566,–,0.0776,0.0649,0.0563,–,–,0.0477,–
Q151R,0.0543,–,0.107,–,–,0.0586,0.0582,–,–,0.0747,0.0621,–,0.0745,0.0644,0.0643,–,–,–,0.0581
F95T,0.0452,0.0678,0.0541,–,0.0295,0.0481,–,0.0256,–,0.0484,–,0.0444,0.0394,–,–,–,0.0155,–,–
